75 compounds from PubChem BioAssay (NCI) can be followed below.

Several values for one entry are separate records, joined by “and”; a condition that tells them apart may be missing. Identical values can stand only once.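 Exposure lasted 48 hours, with cells grown in 96-well plates and compounds tested at five concentrations. The concentration for 50% growth inhibition is given as GI50. TGI is the concentration that stops growth completely.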 Bounds are passed on as bounds.

The subject of the assay is NCI-H322M lung. Briefly: NCI-60 cell line screen, 48 h.
For the compound `Cc1ccc(Oc2ccc(C)cc2[N+](=O)[O-])cc1`, the TGI was more than 100 µM.
The same measure, in the same setting: the value for `COc1cc(OC)c(/C=C2\N=C(C)N(Nc3nnc(NN4C(=O)/C(=C/c5c(OC)cc(OC)cc5OC)N=C4C)c4ccccc34)C2=O)c(OC)c1` was more than 100 µM; that for `Cc1ccc(N2C(=O)C3c4[nH]c5ccccc5c4C4CCC(C(C)(C)C)CC4C3C2=O)cc1` (centres undefined) was 29.4 µM; that for `COc1ccc2cc(-c3ccoc(=O)c3-c3cc(OC)c(OC)c(OC)c3)ccc2c1` was more than 100 µM.
As to `O=C(/C(=C/c1ccc([N+](=O)[O-])cc1)c1ccccc1)c1ccccc1`, the GI50 is 3.91 µM and the TGI is more than 100 µM.
The like results for `COc1cc2c(cc1OCCCCOc1cc3c(cc1OC)C(=O)N1CCC[C@H]1CN3)N=C[C@@H]1CCCN1C2=O` were, in that order, 3.9 µM and 15.1 µM.
`CCCC(=O)NC1=C(NCC)C(=O)c2ccccc2C1=O` showed a TGI of more than 100 µM.
Take `CC(C)(C)c1ccc(OCCCCCCN2CCNCC2)cc1`: the GI50 is 14.2 µM and the TGI was determined as 28.2 µM.
`CCOC(=O)C1=C(O)C(=O)c2ccsc2C1=O` displayed a TGI of more than 100 µM.
Take `O=C1C(=O)c2c(nc3ccc(Cl)cn23)-c2ccccc21`: the GI50 was 1.43 µM and the TGI was found to be 2.82 µM.
`CN1CCCCC1CCN1CCCCC1` (centres undefined) showed a TGI of more than 100 µM.
On the same count and under the same terms, the result for `CC(C)[C@@H]1NC(=O)[C@H]2N=C(O[C@@H]2C)[C@@H]2CCCN2C(=O)[C@H](Cc2ccccc2)NC(=O)[C@@H]2CSC(=N2)[C@@H](Cc2ccccc2)NC(=O)[C@@H]2CSC1=N2` reads more than 50 µM.
Turning to `O=c1oc2ccccc2cc1/C=N/N1C(=S)N(c2ccccc2)C(=Nc2ccccc2)C1=Nc1ccccc1`, the TGI was more than 100 µM.
In turn, `Fc1ccc2nc3n(c2c1)C(c1c(F)cccc1F)SC3` (centres undefined) registered a TGI of more than 100 µM.
As to `CC12NN=NC1C(=O)NC2=O` (centres undefined), the TGI is more than 100 µM.
The same measure, in the same setting: the result for `COc1ccc(NC(=O)C/C(C)=N\N=C(N)N)c([N+](=O)[O-])c1` reads more than 100 µM; that for `CC1(C)CC(=O)c2c(nc3ccc4ccccc4c3c2-c2ccc(NC(=O)CCCC(=O)Nc3ccc(-c4c5c(nc6ccc7ccccc7c46)CC(C)(C)CC5=O)cc3)cc2)C1`, more than 100 µM.
On the same count and under the same terms, the result for `CSCC1CC(c2ccc(Cl)cc2)=NO1` (centres undefined) reads more than 100 µM.
Turning to `CN(C)c1ccc(/C=C\c2cccc[n+]2C)cc1`, the GI50 was 32.6 µM and the TGI is more than 100 µM.
Take `Cc1cc(N(CCC#N)CCC#N)ccc1/C=C/C(=O)Nc1cccc(Cl)c1`: the TGI is more than 100 µM.
Turning to `O=C(O)C/C=C/CC(=O)O`, the TGI is more than 100 µM.
`CCC1(CC)CC(=NNS(=O)(=O)c2ccc(C)cc2)C1` returned a TGI of more than 100 µM.
The same measure, in the same setting: the result for `COc1ccc(OC)c(NC(=O)CCC/C(CC(=O)c2ccc(O)c(OC)c2)=N\NC(=O)C[N+](C)(C)C)c1` reads more than 100 µM.
On the same count and under the same terms, the result for `CCCCCCCCCCCC(=O)OCCOCCOCCOCCOCCOCc1ccc(OC)cc1` reads more than 100 µM; that for `CCOC(=O)CSc1nc(-c2ccccc2)c(C#N)c(=O)[nH]1`, more than 100 µM.
On the same count and under the same terms, the value for `COc1nc(N)c(NC2OC(CO)C(O)C2O)c(=O)[nH]1` (centres undefined) was more than 100 µM; that for `Cc1n[nH]c(=O)c2cc(-c3ccccc3)[nH]c12` was more than 100 µM; that for `[N-]=[N+]=Nc1c(-c2ccccc2)c(Cl)nc2ccccc12` was more than 100 µM.
As to `CCN1CCC(CCOC)(CN2c3ccccc3Sc3ccc(Cl)cc32)C1` (centres undefined), the GI50 was 2.38 µM and the TGI stood at 5.5 µM.
`Cc1c(/C=N/NC(=S)Nc2ccccc2Cl)c(=O)n(-c2ccccc2)n1C` had a TGI of more than 100 µM.
As to `COc1ccc(-c2n[nH]nc2-c2cc(OC)c3c(c2OC)OCO3)cc1`, the GI50 is 3.91 µM and the TGI is more than 93 µM.
Take `Cc1c2cc[n+](CCN3CCCCC3)cc2c(C)c2c1[nH]c1ccc(O)cc12`: the GI50 is 3.18 µM; the TGI was 32.7 µM and 25.9 µM.
`CN(CCO)c1nc2c(c(=O)[nH]1)CCC2`: the TGI was more than 100 µM.
Same read-out and setting: the value for `CN(C)c1ccc(/C=N\NC(=O)CSCC(=O)N/N=C/c2ccc(N(C)C)cc2)cc1` was more than 100 µM; that for `CS(=O)(=O)Oc1cccc(/C=N/N=C(\N)NO)c1` was more than 100 µM.
For `N/C(=N\N=C\c1ccc(-c2ccccc2)cc1)N[N+](=O)[O-]`, the GI50 was 8.02 µM and the TGI was more than 100 µM.
The compound `COc1ccc(NS(=O)CCCc2ccccc2)cc1` (centres undefined) returned a TGI of more than 100 µM.
Still for that read-out and setting: the result for `N#CC(c1ccccc1)c1nc2ccc(=N)cc-2n(O)c1C(C#N)c1ccccc1` (centres undefined) reads more than 100 µM; that for `CCCCCCc1cc(C(=O)Nc2cccc(C(F)(F)F)c2)nc(N)n1`, more than 100 µM; that for `N#C/C(=C\c1ccccc1)C(=O)Nc1nnc(-c2ccccc2)o1`, more than 100 µM.
Still for that read-out and setting: the result for `COc1ccc(C(OCC2OC(n3ccc(NC(=O)c4ccccc4)nc3=O)C(O)C2O)(c2ccccc2)c2ccccc2)cc1` (centres undefined) reads 45.3 µM.
As for `O=C1c2c(c3c4ccccc4[nH]c3c3ccc4ccccc4c23)C(=O)N1CCN1CCCCC1`, the GI50 is 1.47 µM and the TGI was more than 100 µM.
In the case of `O=C(O)C1(P(=O)(O)O)CC1`, the TGI is more than 100 µM.
Still for that read-out and setting: the result for `COc1c2c(cc3oc(C)cc(=O)c13)OC(=N)C(C(N)=O)C2CC(=O)c1ccc(N)cc1` (centres undefined) reads more than 100 µM.
Take `N=C(N)c1ccc(N2CCCN(c3ccc(C(=N)N)cc3)CC2)cc1`: the GI50 was more than 100 µM and the TGI is more than 100 µM.
With `CCOC(=O)C(=O)Nc1c(CC)cccc1C(C)C`, the TGI was more than 100 µM.
`CC1=C(CCC(C)N(C)Cc2ccc(OCCCN3CCCC3)cc2)C(C)(C)CCC1` (centres undefined): the GI50 was 5.7 µM and the TGI was 20 µM.
In turn, `CCCCCCCSc1nc2c(C(=O)OCC)ncn2c2ccccc12` gave a TGI of more than 100 µM.
With `COc1cccc(C=Nc2cc(C)ccn2)c1O.COc1cccc(C=Nc2cc(C)ccn2)c1O.[Cu]`, the GI50 was 13 µM and the TGI turned out to be 29.6 µM.
With `O=C(/C(=C/c1ccccc1)CN1CCCCC1)c1ccccc1`, the GI50 is 3.65 µM and the TGI came to 11.5 µM.
In turn, `Cc1sc(Cc2ccccc2)nc1-c1ccc(N)cc1` registered a TGI of more than 100 µM.
Same read-out and setting: the value for `CC1CC[C@@H](C(C)C)[C@H](Oc2nnc(C3OC(CO)C(O)C3O)o2)C1` (some centres undefined) was more than 100 µM.
Same read-out and setting: the value for `C/C=C/[P+](c1ccccc1)(c1ccccc1)c1ccccc1` was 24.2 µM; that for `COC(=O)c1c2n(c3ccccc13)C[C@H]1OC(C)(C)O[C@@H]21` was more than 100 µM.
For `O=c1[nH]c2ccccc2nc1-c1c[nH]c2ccccc12`, the GI50 is 10.3 µM and the TGI is more than 100 µM.
`Cc1cc2c(C)n(Cc3ccc(Cl)cc3Cl)nc2c(C#N)c1C` gave a TGI of more than 100 µM.
With `CN(C)CCCN1c2ccccc2CCc2ccc(Cl)cc21`, the GI50 is 11.3 µM and the TGI amounted to 23.9 µM.
`CC(=O)C1=CSC2[C@H](NC(=O)Cc3ccccc3)C(=O)N2C1C(=O)OC(c1ccccc1)c1ccccc1` (some centres undefined) yielded a TGI of more than 100 µM.
`N#Cc1c(N)oc(-c2cccc([N+](=O)[O-])c2)c1C#N` yielded a TGI of more than 100 µM.
Compound `CC(=O)Nc1ccccc1SCCSSCCSc1ccccc1NC(C)=O` had a TGI of more than 100 µM.
The compound `O=c1oc2ccccc2c2c(=O)c3ccc(OC/C(=N/O)c4ccc(Cl)cc4)cc3oc12` gave a TGI of 23 µM.
On the same count and under the same terms, the result for `COc1ccc(-c2c(N)n(-c3nc4ccccc4s3)c(=O)c3cc([N+](=O)[O-])ccc23)cc1` reads more than 100 µM; that for `c1ccc2c(C3NCCc4[nH]cnc43)cccc2c1` (centres undefined), more than 100 µM; that for `CN(C)CCCNc1ccc2ncn3c4ccccc4c(=O)c1c23`, 33.8 µM.
Consider `CCN(C(=O)N1CCN(c2cc3c(cc2F)c(=O)c(C(=O)O)cn3C2CC2)CC1)c1nc(-c2ccc(C)cc2)cs1`, for which the GI50 is 0.421 µM and the TGI is more than 100 µM.
`CCC(NC(C)c1ccccc1)C(O)c1ccc(OCc2ccccc2)c(OCc2ccccc2)c1` (centres undefined): the TGI was 27.9 µM.
Compound `CC1=C(N2CC2)C(=O)c2nc3n(c2C1=O)CCC3OC(=O)CCl` (centres undefined) showed a TGI of 0.454 µM.
Regarding `COCn1c2ccc(OC(C)=O)cc2c2c(=O)oc(N(C)C)nc21`, the TGI was more than 100 µM.
As for `CCN=C1C=CC(=C(c2ccc(N)cc2)c2ccc(N(CC)CC)c(C)c2)C=C1`, the GI50 was 0.433 µM and the TGI was found to be 4.57 µM.
As for `COc1cc(C(=O)C/C(CCC(=O)Nc2ccccc2[N+](=O)[O-])=N\NC(=O)CC#N)ccc1O`, the TGI is more than 100 µM.
For the compound `CCOC1(COP(=O)(OCc2ccccc2)OCc2ccccc2)COC(COP(=O)(OCc2ccccc2)OCc2ccccc2)(OCC)CO1` (centres undefined), the TGI is more than 100 µM.
The same measure, in the same setting: the value for `COC1CC(OS(=O)(=O)c2ccc(C)cc2)C(OC(=O)c2ccccc2)C(C)O1` (centres undefined) was more than 100 µM.
On the same count and under the same terms, the value for `COc1ccc(N=c2ssc3c(=S)ssc23)cc1` was more than 100 µM; that for `COC(=O)C1=CSC2(S1)C(C(=O)OC)=CSc1c2ssc1=Nc1ccccc1` (centres undefined) was 20.7 µM.
For `N#Cc1c(N/N=C/c2c(Cl)cccc2Cl)nc(N)nc1N1CCOCC1`, the GI50 was 56.8 µM and the TGI is more than 100 µM.
